# The source gives no read counts; variants with many changes may rest on few reads.
# B1: CPEB3 Ribozyme (parent)
# chain: UAACAGGGGGCCACAGCAGAAGCGUUCACGUCGCAGCCCCUGUCAGAUUCUGGUGAAUCUGCGAAUUCUGCUGUAUAUCUC
# Variants of: B1
# Assay: self-cleavage, relative activity (ratio to wild type); higher = more cleavage; in vitro, sequencing
# Method in brief: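 Relative activity compares each variant's cleaved/total read fraction with that of the unmutated ribozyme. To get these fractions, barcoded CPEB3 ribozyme libraries from rounds of error-prone PCR were transcribed with T7 RNA polymerase for 5 hours at 37°C and then given 15 min of DNase I treatment before EDTA was added. The RNAs were reverse transcribed with template switching and sequenced on Illumina, and DNA sequencing linked barcodes to variants. A minimum of 5 reads applied, and three batches were averaged.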
row,Variant,self-cleavage
1,UGACAGGGGGCCACAGCAGAUGCGUUCACGUCGCAGCCCCCGUCAGAUUCUGGUGAAUCUGCGAAUUCUGCUGUAUAUCUC,0.18
2,UGACAGGGGGCCACAGCAGAAGCGUUCGCGUCGCGGCCCCAGUCAGAUUCUGGUGAAUCUGCGAAUUCUGCUGUAUAACUC,0.08
3,UGACAGGGGGCCACAGCAGAAGCGUUCGCGUCGCAGGCCCAGUCAGAUUCUGGUGAAUCUGCGAAUUCUGCUGUAUAUCCC,0.32
4,UGACAGGGGGCCACAGCAGAAGCGUUCUCGUCGCAGCCCCUGUCAGACUCUGGUGGAUCUGCGAAUUCUGCUGUAUAUCUC,0.13
5,UGACAGGGGGCCACAGCAGAAGCGUUCUCGUCGCAGCCCCUGUCAGAUUCUGGCGAAUCUGCGAAUUCUGCUGUUCAUCUC,0.45
6,UGACAGGGGGCCACAGCAGAAGCGUUCACGUCGCGGCCCCUGCCAGAUUCUGGUUAAUCUGCGAACUCUGCAGUAUAUCUU,0
7,UGACAGGGGGCCACAGCAGAAGCGUUCACGUCGCUGCCCCUGCCAGAUUCUGGUGAAUCUGCGAAUUCUGCUGUAUAUCUC,0.26
8,UGACAGGGGGCCACAGCAGAAGCGUUCACGUCGCUGCCCCUGUCAGAAUCUGGUGGAUCUGCGAAUUCUGCUGUAUAUCUC,0.56
9,UGACAGGGGGCCACAGCAGAAGCGUUCACGUCGCAGCCCCUGUCCGAUUCUGGUGAAUCUGCGAAUCCUGCUGUAUAUCUC,0.17
10,UGACAGGGGGCCACAGCAGAAGCGUUCACGUCGCAGCCCCUGUCCGAUUCUGGUGAAUCUGCGAAUUCCGCUAUAUAUCUC,0.26
11,UGACAGGGGGCCACAGCAGAAGCGUUCACGUCGCAGCCCCUGUCGGAUUUUGGUGUAUCUGCGAAUUCUGCUGUAUAUCUC,0.31
12,UGACAGGGGGCCACAGCAGAAGCGUUCACGUCGCAGCCCCUGUCAGGUCCUGGUGAAUCUGCGAAUUCUGCUGUAUAUCUC,0.15
13,UGACAGGGGGCCACAGCAGAAGCGUUCACGUCGCAGCCCCUGUCAGGUUCUGGUGAAUCUGCGAAUUCUGCUGUAUAUCCC,0.62
14,UGACAGGGGGCCACAGCAGAAGCGUUCACGUCGCAGCCCCUGUCAGAUUCUGGUGGAUCUGCGAAUUCCGCUGUAUAUCUC,0.24
15,UGACAGGGGGCCACAGCAGAAGCGUUCACGUCGCAGCCCCUGUCAGAUUCUGGUGUAUCUGCGGAUUCUGCUGUAUAUCCC,0.22
16,UGACAGGGGGCCACAGCAGAAGCGUUCACGUCGCAGCCCCUGUCAGAUUCUGGUGUAUCUGCGAAUUCUGCUGUAUAUCCC,0.3
17,UGACAGGGGGCCACAGCAGAAGCGUUCACGUCGCAGCCCCUGUCAGAUUCUGGUGAGUCUGCGAAUGCUGCUGUAUAUCUC,0.16
18,UGACAGGGGGCCACAGCAGAAGCGUUCACGUCGCAGCCCCUGUCAGAUUCUGGUGAAUCUGCGGGUACUGCUGUAUAUCUC,0.29
19,UGACAGGGGGCCACAGCAGAAGCGUUCACGUCGCAGCCCCUGUCAGAUUCUGGUGAAUCUGCGGAUUCUCCUGUAUAUCUC,0.23
20,UGACAGGGGGCCACAGCAGAAGCGUUCACGUCGCAGCCCCUGUCAGAUUCUGGUGAAUCUGCGAGUUCUGCUGUAUAUCAC,0.25
21,UGACAGGGGGCCACAGCAGAAGCGUUCACGUCGCAGCCCCUGUCAGAUUCUGGUGAAUCUGCGAUUUCAGCAGUAUAUCUC,0.16
22,UGAUAGGGGGCCACAGCAGAGGCGUUCACGUCGCAGCCCCUGUCAGAUUCUGGUGAAUCUGCGAAUUCUGUUGUAUAUCUC,0.29
23,UGAUAGGGGGCCACAGCAGAAGCGCUCACGUCGCAGCCCCUGUCAGAUUCUGGUGAAUCUGCGAAUUCUGCCGUAUAUCUC,0.66

row,Variant,self-cleavage
1,UGAUAGGGGGCCACAGCAGAAGCGUGCACGUCGCAGCCCCUGUCAGAUUCUGGUGAAUCUGCGAAUUCUGCUGUAUAACUC,0.22
2,UGACAGGGGGACGCAGCAGAAGCGUUCACGUCGCAGCCCCUGUCGGAUUCCGGUGAAUCUGCGAAUUCUGCUGUAUAUCUC,0.08
3,UGACAGGGGGGCACUGCAGAAGCGUUCACGUCGCAGCCCCUGUCAGACUCUGGUGGAUCUGCGAAUUCUGCAGUAUAUCUC,0.05
4,UGACAGGGGGGCACAGCAGAAGCGUUCACGUCGCAGCCCCUGUCAGAUUCUGGCGAAUCUGCGAAUUCUGCUGUUUAUCUC,0.4
5,UGACAGGGGGUCACAGCAGGAGCGUUCACGUCGCAGCCCCUGUCAGAUUCUGGUGGACCUGCGAAUUCUGCUGUAUAUCUC,0.35
6,UGACAGGGGGCGGCAGCAGAAGCGUUCACGUCGCUGCCCCUGUCAGAUUCUGGUAAAUCUGCGAAUUCCGCUGUAUAUCUC,0.12
7,UGACAGGGGGCGACAGCGGAAGCGUUCACGUCGCAGCCCCUGUCAGAUUCAGGUGAAUCCGCGAAUUCUGCAGUAUAUCUC,0.04
8,UGACAGGGGGCUACUGCAGAAGCGUUCACGUCGCAGCCCCAGUCAGAUUCUGGCGAAUCUGCGAAUUCUGCUGUAUAUCUC,0.09
9,UGACAGGGGGCUACAGCAGAAGCGUACAGGUCGCUGCCCCUGUCAGAUUCUGGCGAACCUGCGAAUUCUGCUGUAUAUCUC,0.23
10,UGACAGGGGGCUACAGCAGAAGCGUUCACGUCGCAGCCCCCGUCAGAUUCUGGUGAAUCUGCGAAUUCUGCUGUAUAUCUC,1.17
11,UGACAGGGGGCCAUAGCUGAAGCGUUCACGUCGCAGCCCAUGUCAGAUUCCGGUGAAUCUGCGAGUUCUGCUGUAUAUCUC,0.03
12,UGACAGGGGGCCAUAGCAGAAGCGUUCACGUCGCAGCCCCUGUCAGAUUCUGGUGAACCCGCGAACUCUGCUGUAUAUCUC,0.14
13,UGACAGGGGGCCAUAGCAGAAGCGUUCACGUCGCAGCCCCUGUCAGAUUCUGGUGAAUCAGCGAACUCAGCUGUAUAUCUC,0.09
14,UGACAGGGGGCCACAGUAGAGGCGUUCACGUCGCGGCCCCUGUCAGAUUCUGGUGAAUCUGCGAAUUCUGCUGUAUAUCUC,0.7
15,UGACAGGGGGCCACAGUAGAAGCGCUCACGUCGCAGCCCCUGUCUGAUUCUGGUGAAUCUGCGAAUUCAGCAGUAUAUCUC,0.05
16,UGACAGGGGGCCACAGCAGAAGGGUUCAAGUCGCAGCCCCUGUCAGAUUCUGGUGAAUCUGCGAAUUCUGCUGUAUAUCUC,0.33
17,UGACAGGGGGCCACAGCAGAAGUGUUCACGUCGCAGCCCCUGUCAGAUUCUGGUGAAUCUGCGAGUUCUGCUGUAUAUCUC,0.23
18,UGACAGGGGGCCACAGCAGAAGUGUUCACGUCGCAUCCCCUGUCAGAUUCUGGUGAAUCUGCGAAUUCUGCUGUAUAUCUC,0.19
19,UGACAGGGGGCCACAGCAGAAGCGUUUACGUCGCAGCCCCUGUCAGAUUCUGGCGAAUCUGCCAAUUCUGCUGUAUAUCUC,0.41
20,UGACAGGGGGCCACAGCAGAAGCGUUCAAGUCACAGCCCCUGUCAGAUUCUUGCGAAUCCGCGAAUUCUGCUGUAUAUCUC,0.05
21,UGACAGGGGGCCACAGCAGAAGCGUUCAUGUCGCAGCCCCUGUCAGAUUCAGGAGAAUCUGCGAUUUCUGUUGUAUAUCUC,0.25
22,UGACAGGGGGCCACAGCAGAAGCGUUCACGUAGCAGCCCCCGUCAGAUUCUGGUGAACCUGCGAAUUCUGCAGUAUAUCUC,0.17
23,UGACAGGGGGCCACAGCAGAAGCGUUCACGUAGCAGCCCCUGUCAGAUUCUGGGGGAUCUGCGAAUUCUGCUGUAUAUCUC,0.24

row,Variant,self-cleavage
1,UGACAGGGGGCCACAGCAGAAGCGUUCACGUGGCAGCCCCUGUCAGAUUCUGUUGAAUCUGCGAAUUCUGCUGUGUAUGUC,0.03
2,UGACAGGGGGCCACAGCAGAAGCGUUCACGUCGGAGCCCCUGUCAGUUUCUGGUGAAUCUGCGAAUUCUGCUGUAUAUCAC,0.28
3,UGACAGGGGGCCACAGCAGAAGCGUUCACGUCGUAGCCCCAGUCAGAUUCAGGUGAAUCUGCGAAUUCUGCUGUAUAUCUC,0.32
4,UGACAGGGGGCCACAGCAGAAGCGUUCACGUCGCAGACCCUGUCAGGUUCAGGUGAGUCUGCUAAUUCAGCUGUAUAUCUC,0.06
5,UGACAGGGGGCCACAGCAGAAGCGUUCACGUCGCAGUCCCUGCCAGAUUCAGGUGAAUCUGCGAAUUCUGCUGUAUAUCUC,0.08
6,UGACAGGGGGCCACAGCAGAAGCGUUCACGUCGCAGCUCGUGUCAGAUUCUGGGGAAUCUGCGAUUUCUGCUUUAUAUCUC,0.04
7,UGACAGGGGGCCACAGCAGAAGCGUUCACGUCGCAGCCACUGUCAGAUUCUGGUGAAUCUGCGAAUUUUGCUGUAUAUCUC,0.36
8,UGACAGGGGGCCACAGCAGAAGCGUUCACGUCGCAGCCUGUGUCAGAUUCUGGUGAACCUGCGAAUUCUGCUGUAUAUCUC,0.16
9,UGACAGGGGGCCACAGCAGAAGCGUUCACGUCGCAGCCUCUGCCAGAUUCCGAUGAAUCUGCGAAUUCUGCUGUAUAUCUC,0.33
10,UGACAGGGGGCCACAGCAGAAGCGUUCACGUCGCAGCCCAUGUCAGAUUCUGGUGAAUCUGCGAAUUCUGCAGUAUAUCUC,0.53
11,UGACAGGGGGCCACAGCAGAAGCGUUCACGUCGCAGCCCUCGUCAGAUUCUCGUGAAUCUGCGAAUUCUGCUGUAUACCUC,0.44
12,UGACAGGGGGCCACAGCAGAAGCGUUCACGUCGCAGCCCCUGUCAGAUUAUGGUGAAUCUGCGAAUUCUGCCGUAUAUCUC,0.34
13,UGACAGGGGGCCACAGCAGAAGCGUUCACGUCGCAGCCCCUGUCAGAUUCUGGUGAAUGUGCGAAUUCUGAUGUAUAUCUC,0.18
14,UGACAAGGGGCCACAGCAGAGGCGUUCACGUCGCUGCCCCUGUCAGAUUCUGGUGAAUCUGCGAAUUCUGCUGUAUAUCUC,0.33
15,UGACAAGGGGCCACAGCAGAAGCGUUCACGUCGCAGCCCCUGUCAGAUUCUGGUGAGUCUGCGAAUUCUGCUGUAUAUCUC,0.09
16,UGACAAGGGGCCACAGCAGAAGCGUUCACGUCGCAGUCCCUGUCAGAUUUUGGAGAAUCUGCGAAUUCUGCUGUAUAUCUC,0.07
17,UGACAAGGGGCCACAGCAAUAGCGUUCACGUCGCAGCCCCAGUCAGACUCUGGUGAAUCGGCGAAUUCUGCUGUAUAUCUC,0.05
18,UGACAAGGGGCCACAGCAGAAGCGUUCACGUCGCAGCCCCAGUCAGAUUCUGGUGAAUCCGCGAAUUCUGCUGUAUAUCUC,0.55
19,UGACAGAGGGCCACAGCAGAAGCGUUCACGUCGCAGCCCCUGUCUGAUUCUGGUGAAUCUGCGAAUUCUGCUGUAUAUCUC,0.2
20,UGACAGCGGGCCACAGCAGAAGCGUUCACGUCGCAGCCCCUGUCAGAUUCUGGUGAGCCUGCGAAUUCUGCUGUAUAUCUC,0.08
21,UGACAGCGGGACACAGCAGAAGCGUUCACGACGCAGCCCCUGCCAGAUUCUGGUGAAUCGGCGAAUUCUGCUGUGUAUCUC,0.03
22,UGACAGCGGGCCACAGCAGAAGCGUUCACGUCGCAGCCCCUGUCAGAUACUGGUGAAUCUGCGAAUCCUGCUGUAUAUCUC,0.16

# Source: the RNAGym collection of RNA variant scans (doi:10.1093/nar/gkz1192)
